Values belong to the binder of their own block, whether it stands above or below them.
Tests used:
[1] = biological target: T1, S. cerevisiae Arp3(L155C, L445D/F446D) (S. cerevisiae, UniProt P47117, L155C | L445D | F446D); experiment: cross-linking; short-pitch crosslinking assay with ATP: 1 μM purified ScArp2/3 complex with Arp2(R198C)/Arp3(L155C), 25 μM BMOE, 100-200 μM ATP, 1 mM MgCl2, 50 mM KCl, 10 mM imidazole pH 7.0, 1 mM EGTA, 21 °C, 30 s to 5 min; anti-Arp2/anti-Arp3 western blot; settings: both partners purified
T1 construct: Arp3, S. cerevisiae; made on the arp3(L155C) template in pRS315; Stood in the assay as a subunit of the seven-subunit Arp2/3 complex; also called Arp3(L445D/F446D); Arp3(L445D and F446D); source: S. cerevisiae, subunit of the purified Arp2/3 complex

[2] = biological target: T2, S. cerevisiae Arp3(L155C) (S. cerevisiae, UniProt P47117, L155C); experiment: as above; settings: both partners purified
T2 construct: Arp3, S. cerevisiae; arp3(L155C) with native promoter and terminator on pRS315, sole copy of Arp3; Stood in the assay as a subunit of the seven-subunit Arp2/3 complex, not as a free protein; also called ScArp3; source: S. cerevisiae, subunit of the purified Arp2/3 complex

binding result [1]: binds
B1: S. cerevisiae Arp2(R198C) (natural protein)
chain: not shown
notes: Arp2, S. cerevisiae; arp2(R198C) with native promoter and terminator on pRS317, sole copy of Arp2; Stood in the assay as a subunit of the seven-subunit Arp2/3 complex, not as a free protein; also called ScArp2; source: S. cerevisiae, subunit of the purified Arp2/3 complex

fold crosslinking over the wild-type complex (1 min, with ATP) [2]: 6 fold
B2: S. cerevisiae Arp2(R198C, A207C) (natural protein)
chain: not shown
notes: Arp2, S. cerevisiae; splayed interface mutation made on the arp2(R198C) template in pRS317; Stood in the assay as a subunit of the seven-subunit Arp2/3 complex; also called Arp2(A207C); source: S. cerevisiae, subunit of the purified Arp2/3 complex

fold crosslinking over the wild-type complex (1 min, with ATP) [2]: 12 fold
B3: S. cerevisiae Arp2(R198C, F203Y) (natural protein)
chain: not shown
notes: Arp2, S. cerevisiae; splayed interface mutation made on the arp2(R198C) template in pRS317; Stood in the assay as a subunit of the seven-subunit Arp2/3 complex; also called Arp2(F203Y); source: S. cerevisiae, subunit of the purified Arp2/3 complex

binding result [2]: binds
B4: S. cerevisiae Arp2(R198C, A207I) (natural protein)
chain: not shown
notes: Arp2, S. cerevisiae; splayed interface mutation made on the arp2(R198C) template in pRS317; Stood in the assay as a subunit of the seven-subunit Arp2/3 complex; also called Arp2(A207I); source: S. cerevisiae, subunit of the purified Arp2/3 complex

fold crosslinking over the wild-type complex (1 min, with ATP) [2]: 5 fold
B5: S. cerevisiae Arp2(R198C, A207W) (natural protein)
chain: not shown
notes: Arp2, S. cerevisiae; splayed interface mutation made on the arp2(R198C) template in pRS317; Stood in the assay as a subunit of the seven-subunit Arp2/3 complex; also called […]W; Arp2(A207W); source: S. cerevisiae, subunit of the purified Arp2/3 complex

— paper PMC4947185, “Identification of an ATP-controlled allosteric switch that controls actin filament nucleation by Arp2/3 complex” (Nature Communications, 2016)
